Measured values published in PubChem BioAssay AID720709 (National Center for Advancing Translational Sciences (NCATS), 2013).
The campaign covered roughly 360,000 compounds. About 520 (0.14%) were called active. Inconclusive means that the source gave no clear call. Such entries were picked first, then a sample of the others. The call rests on the fitted dose curve; in most records, active means well fitted inhibition curve with a large enough effect; inconclusive means small, poorly fitted or top-dose-only effect; inactive means no such curve, though single readings can be large or run the other way. No potency is given beside an inconclusive call; the fits are too rough.

Each compound was assayed against Rap guanine nucleotide exchange factor 3 (Homo sapiens) (UniProt O95398) (assay: qHTS for Antagonist of cAMP-regulated guanine nucleotide exchange factor 3 (EPAC1): primary screen). Conditions: EPAC1 GEF assay, Rap1b-BODIPY-GDP exchange fluorescence; activity change, negative = inhibition: at 115 µM (top of the series).
Chain of UniProt O95398 (O95398 whole entry, looked up): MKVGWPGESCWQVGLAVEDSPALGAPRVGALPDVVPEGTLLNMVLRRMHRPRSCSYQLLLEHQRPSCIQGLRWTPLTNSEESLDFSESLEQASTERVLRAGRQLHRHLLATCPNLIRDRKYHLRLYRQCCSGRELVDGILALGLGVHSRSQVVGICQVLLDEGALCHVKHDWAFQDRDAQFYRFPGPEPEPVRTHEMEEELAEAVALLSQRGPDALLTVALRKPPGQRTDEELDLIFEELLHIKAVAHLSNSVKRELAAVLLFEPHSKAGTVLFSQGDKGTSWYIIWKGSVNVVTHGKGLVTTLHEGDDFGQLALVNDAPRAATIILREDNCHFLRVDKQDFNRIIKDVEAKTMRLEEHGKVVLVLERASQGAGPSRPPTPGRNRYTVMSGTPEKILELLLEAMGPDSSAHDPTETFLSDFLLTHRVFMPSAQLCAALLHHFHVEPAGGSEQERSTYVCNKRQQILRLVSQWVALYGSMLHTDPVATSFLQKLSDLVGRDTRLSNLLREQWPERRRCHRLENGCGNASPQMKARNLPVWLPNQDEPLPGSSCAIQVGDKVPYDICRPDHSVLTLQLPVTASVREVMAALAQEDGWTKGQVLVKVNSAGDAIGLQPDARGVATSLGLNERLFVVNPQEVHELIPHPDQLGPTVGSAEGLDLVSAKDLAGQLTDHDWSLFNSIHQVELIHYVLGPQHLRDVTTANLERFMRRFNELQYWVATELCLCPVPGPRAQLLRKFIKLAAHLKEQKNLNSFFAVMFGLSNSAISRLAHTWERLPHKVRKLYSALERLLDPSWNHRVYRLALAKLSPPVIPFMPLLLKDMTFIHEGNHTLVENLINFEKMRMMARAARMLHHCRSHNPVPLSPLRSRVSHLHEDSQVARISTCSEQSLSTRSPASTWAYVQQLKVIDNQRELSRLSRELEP
From the text: In multi-cellular eukaryotic organisms, the effects of cAMP are transduced by two ubiquitously-expressed intracellular cAMP receptors, the classic protein kinase A/cAMP-dependent protein kinase (PKA/cAPK) and the more recently discovered exchange protein directly activated by cAMP/cAMP-regulated guanine nucleotide exchange factor (EPAC/cAMP-GEF). Both PKA and EPAC are ubiquitously expressed in all tissues, and an increase in intracellular cAMP levels will lead to the activation of both PKA and EPAC. Therefore, careful dissections of the individual role and relative contribution of EPAC and PKA within the overall cAMP signaling in various model systems are critical for further elucidating the mechanism of cAMP signaling. To date no EPAC-specific antagonists and agonist, as well as isoform-specific agonists have been reported, and developing EPAC-specific pharmacological probes to determine the physiological functions that EPAC play in the overall cAMP-mediated signaling remains a major challenge within the research field. Furthermore, identified regulators of EPAC may lead to new mechanism-based therapeutic strategies specifically targeting the EPAC / cAMP-signaling components as EPAC has been implicated to play important roles in major human pathological conditions such as diabetes, heart disease, and cancer. This qHTS will be used to screen the Molecular Libraries Small Molecule Repository (MLSMR) as a concentration-titration series using the NCGC unique quantitative screening (qHTS) platform to find inhibitors for EPAC1. In addition, this assay will also be used as a counterscreen for the EPAC2 qHTS. This fluorescent based assay is developed and validated for EPAC1 that measures exchange using EPAC effector Rap1 complex with BODIPY-GDP, a GDP analog with a tethered fluorophores. Inhibitors are identified by monitoring the change in fluorescence signal as the exchanged free BODIPY-GDP has a reduced fluorescence compared to Rap1-bound BODIPY-GDP. Decrease in signal (inhibition) is the desired outcome for the EPAC1 antagonist while no activity in this assay is desired for the EPAC2 antagonist counterscreen. de Rooij, J., Zwartkruis, F. J., Verheijen, M. H., Cool, R. H., Nijman, S. M., Wittinghofer, A., and Bos, J.L. (1998) Nature 396, 474-477 [2] Kawasaki, H., Springett, G. M., Mochizuki, N., Toki, S., Nakaya, M., Matsuda, M., Housman, D. E., and Graybiel, A. M. (1998) Science 282, 2275-2279 NIH Chemical Genomics Center [NCGC] NIH Molecular Libraries Probe Centers Network [MLPCN] MLPCN Grant: NS066510 Assay Submitter (PI): Xiaodong Cheng, The University of Texas, Medical Branch
Briefly, three uL of reagents (100 nM EPAC1, 250 nM RAP1B-BODIPY-GDP, 50 uM GDP) were dispensed into a 1536-well Greiner black solid-bottom medium binding assay plate. Controls and test compounds (23 nL) were transferred to the plate via a Kalypsys pin tool equipped with a 1536-pin array. The plates were centrifuged at 1,000 rpm for 15 seconds followed by 5 minute incubation at room temperature. The assay plates were read at 5 minute intervals for 30 minutes in the ViewLux plate reader using 480nm excitation and 540nm emission filters. The results were normalized to the […] positive control ATA and DMSO.
Further: nearly all actives have a fitted effect of over 50% in size.
Potency means the concentration at half of the fitted maximal effect; tags describe the fitted curve by direction and shape.
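Wherever activity change, negative = inhibition is given: plate controls were vehicle for no effect and positive control for full effect.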

SMILES | Potency | activity change, negative = inhibition
Cc1ccc(C)n1-c1ccc(C(=O)NN)cc1 | inconclusive [inhibitor, partial curve] | –
O=c1[nH]c(CN2CCN(S(=O)(=O)/C=C/c3ccccc3)CC2)nc2cc(Cl)ccc12 | inconclusive [inhibitor, single point] | –
Cc1cccc(CN2CCN(Cc3ccc4nonc4c3)CC2CCO)n1 (configuration not stated) | inconclusive [inhibitor, full curve, poor fit] | –
COc1ccc(/C(N)=N/OC(=O)COc2ccccc2Cl)cc1 | inconclusive [inhibitor, single point] | –
O=C(c1cccc(S(=O)(=O)Nc2ccccc2Cl)c1)N1CCN(c2ccccc2O)CC1 | inconclusive [inhibitor, single point] | –
COc1ccc(Cl)cc1-c1cc(C(=O)NCc2ccccc2)[nH]n1 | inconclusive [inhibitor, partial curve] | –
NS(=O)(=O)c1cccc(Nc2nc3ccccc3nc2NS(=O)(=O)c2ccc(Cl)cc2)c1 | inconclusive [inhibitor, partial curve] | –
CCOC(=O)c1sc(C)c2c1NC(C)(c1ccccc1)NC2=O (configuration not stated) | inconclusive [inhibitor, partial curve] | –
Cc1cc2[nH]c(=O)c(=O)[nH]c2cc1S(=O)(=O)Nc1cccc(Cl)c1 | inconclusive [inhibitor, single point] | –
CCOc1ccc(C2C(C(=O)c3ccc(C)o3)=C(O)C(=O)N2c2nc(C)c(C(=O)OC)s2)cc1 (configuration not stated) | inconclusive [inhibitor, full curve, poor fit] | –
O=C(Cn1cnc2c(OCc3ccccc3)ncnc21)NCCCN1CCCC1=O | inconclusive [inhibitor, single point] | –
O=C(Nc1cnn(Cc2ccc(Cl)cc2)c1)c1ccc([N+](=O)[O-])cc1 | inconclusive [inhibitor, full curve] | –
CCCSC1=N/C(=C\c2ccc3c(c2)OCO3)C(=O)S1 | – | inactive: -2.05%
COc1ccc(C(C)(O)c2nc(-c3ccc(OC)c(OC)c3)cs2)cc1 (configuration not stated) | inconclusive [inhibitor, single point] | –
O=C(Nc1ccc(-n2nncc2-c2ccco2)cc1)c1cc2ccccc2oc1=O | inconclusive [inhibitor, single point] | –
CCn1c(/C=C/Nc2ccccc2)[n+](CC)c2cc(Cl)c(Cl)cc21 | – | inactive: 15.5%
O=C(Cc1cccc2ccccc12)Nc1ccc(-c2cc3ccccc3oc2=O)cc1 | inconclusive [inhibitor, single point] | –
Cc1ccc(CNC(=O)COc2ccc(C(=O)c3ccc(F)cc3)cc2)cc1 | inconclusive [inhibitor, partial curve, poor fit] | –
CCn1cc(C(=O)Nc2ccc(NC(=O)c3ccco3)cc2)c(=O)c2ccc(C)nc21 | inconclusive [inhibitor, single point] | –
CC(=O)Oc1c(C)c2c3c(c1OC(C)=O)[C@@H](C)CC[C@@H]3[C@@H](C)C[C@H]2C=C(C)C | inconclusive [inhibitor, partial curve, poor fit] | –
CCOC(=O)C1CCN(C(=O)c2cc(OCC)c(OCC)c(OCC)c2)CC1 | – | inconclusive: -16.9% [inhibitor]

SMILES | Potency | activity change, negative = inhibition
O=C(NNC(=O)c1ccccc1O)c1ccc(Cl)c(S(=O)(=O)N2CCCCC2)c1 | inconclusive [inhibitor, single point] | –
O=C1NC(=O)/C(=C\c2ccsc2)N1 | inconclusive [inhibitor, partial curve] | –
Cn1c(SCC(=O)Nc2nccs2)nnc1-c1ccncc1 | inconclusive [inhibitor, single point] | –
CC1(C)OC(=O)C2=C(C[C@@H](C3CCCC3)O[C@@H]2c2ccc(Cl)cc2)O1 | – | inactive: -10.6%
CCCCCCCCCCCCN1[C@@H](CC(=O)O)c2cc(C(F)(F)F)ccc2S1(=O)=O | active: 79.4 µM | –
N#Cc1cccc(NC(=O)CSc2sc3c(O)cc(=O)[nH]c3c2C#N)c1 | inconclusive [inhibitor, full curve] | –
CC(NC(=O)c1cccs1)c1ccccc1 (configuration not stated) | – | inactive: 5.39%
CCc1nc(N2CCN(C(=O)c3ccccc3)CC2)c2c3c(sc2n1)CCCC3 | inconclusive [inhibitor, single point] | –
O=C(C(=O)N1CCN(C(=O)OCc2ccccc2)CC1)c1cccs1 | – | inactive: 8.27%
COc1cc(CCC(C)=O)ccc1OC(=O)c1c(F)cccc1Cl | – | inactive: 1.42%
Cc1cc(C)c(S(=O)(=O)Nc2ncn[nH]2)c(C)c1 | inconclusive [inhibitor, single point] | –
CCCc1cc(=O)oc2cc(OCC(=O)Nc3ccc(S(N)(=O)=O)cc3)ccc12 | inconclusive [inhibitor, partial curve, poor fit] | –
COc1ccccc1S(=O)(=O)N(C)C[C@H]1Oc2cc(C#CCC3CCCC3)ccc2S(=O)(=O)N([C@H](C)CO)C[C@H]1C | – | inactive: -9.39%
COC(=O)c1cn(C(=O)OC)c2ccccc12 | – | inactive: -11%
Fc1ccccc1NC(=S)Nc1ccc(CN2CCOCC2)cc1 | inconclusive [inhibitor, full curve, poor fit] | –
CCN(CC)c1nc(N)nc(NS(=O)(=O)c2ccc(Cl)cc2)n1 | – | inactive: 1.68%
COC1=C(Nc2ccc(O)cc2)C(=O)c2ccccc2C1=O | inconclusive [inhibitor, partial curve] | –
Cc1sc(-n2c(C)cc(/C=C3\SC(=S)NC3=O)c2C)c(C#N)c1C | inconclusive [inhibitor, partial curve, poor fit] | –
CCCC1(CCC)NC(=O)N(CC(=O)Nc2ccc(Cl)c(S(=O)(=O)N3CCOCC3)c2)C1=O | – | inactive: -21.5%
Cc1ccc(C(=O)N(CC(=O)Nc2ccc(Cl)c(Cl)c2)Cc2ccco2)cc1 | inconclusive [inhibitor, full curve, poor fit] | –
COc1ccc(/C=C/c2nc(S(=O)(=O)c3ccccc3)c(N(C)C)o2)cc1OC | inconclusive [inhibitor, single point] | –
